Assay results published in ChEMBL document CHEMBL4888484, “Replenishing the malaria drug discovery pipeline: Screening and hit evaluation of the MMV Hit Generation Library 1 (HGL1) against asexual blood stage Plasmodium falciparum ,using a nano luciferase reporter read-out” (2022).
Hit rate of the full screen: of about 150,000 compounds, about 540 (0.36%) showed an effect of 50% or more. This is one part of the list.

The compounds below were run on Plasmodium falciparum (assay: Primary screen in NF54 nanoGlo assay, in single point, at 2uM, 72h; a lower Z score goes with more inhibition). Details: timepoint 72 hour.
Format: functional, Erythrocyte
For `CCOc1ccc2nc3n(c2c1)CCCN3`, the “% Inhibition” value was 32% and the Z score was -3.63. With `Cn1cc(CC(=O)NCc2ccc(F)cc2)c2cccnc21` the “% Inhibition” value was -9% and the Z score was 1.06. For `COCCN(CC(=O)N1N=C(c2cccn2C)C[C@H]1c1ccc(OC)cc1)C(=O)NC(C)(C)C`, the “% Inhibition” value was -4% and the Z score was 0.43. For `CCn1cc(-c2ccc(C)cc2)cc1C(=O)N[C@@H](C)c1cccnc1`, the “% Inhibition” value was 3% and the Z score was -0.46. `CCN(CC(=O)Nc1c(F)cccc1F)C(=O)c1c(-c2ccccc2Cl)noc1C` was tested, and the “% Inhibition” value was -9% and the Z score was 1.84. In the case of `CCCNC(=O)CN1C[C@H](C(F)(F)F)[C@@H](S(=O)(=O)N(C)C)C1`, the “% Inhibition” value is reported as -12% and the Z score is reported as 1.2. In the case of `Cc1cn(Cc2nc(CC(N)=O)nn2CCc2ccccc2)c(=O)[nH]c1=O`, the “% Inhibition” value is reported as -4% and the Z score is reported as 0.43. `CC(C)CCNC(=O)N1CCN(S(=O)(=O)c2ccc3c(ccn3C)c2)CC1` was tested, and the “% Inhibition” value was -13% and the Z score was 1.76. With `O=C(CCc1cccnc1)N1CCC[C@H](Cc2nc3ccccc3[nH]2)C1` the “% Inhibition” value was 1% and the Z score was -0.14. For `O=C(c1ccncc1)N1CCC[C@H]1c1nc2ccccc2[nH]1`, the “% Inhibition” value was -10% and the Z score was 1.3. With `Cc1ccccc1C1(C(=O)N2CCC(O)(CN)CC2)CCC1` the “% Inhibition” value was 1% and the Z score was -0.24. `Cc1nc(-c2csc(S(=O)(=O)NCc3ccc(F)cc3Cl)c2)sc1C` was tested, and the “% Inhibition” value was -10% and the Z score was 1.46. In the case of `Cc1nc([C@@H]2COCCN2S(=O)(=O)c2cc(F)ccc2Cl)no1`, the “% Inhibition” value is reported as -2% and the Z score is reported as 0.36. For `CCOc1ccc(CN2CCc3nc(N4CCCC4)ncc3C2)cc1OCC`, the “% Inhibition” value was -7% and the Z score was 0.98. For `Cc1ccc(-n2[nH]c(C(=O)N3CC=C(C(F)(F)F)CC3)cc2=O)cc1`, the “% Inhibition” value was -10% and the Z score was 1.15. With `CC(=O)N[C@H]1C[C@H]2CN(S(=O)(=O)c3cccc(Cl)c3)[C@@H](CC(C)C)C(=O)N2C1` the “% Inhibition” value was -20% and the Z score was 1.78. `O=C(CN(c1ccncc1)S(=O)(=O)c1ccccc1)Nc1ccc(N2CCCCC2)cc1` was tested, and the “% Inhibition” value was 3% and the Z score was -0.45. For `Cc1cc(C)n(-c2ccnc(N3CCN(C(C)C)CC3)n2)n1`, the “% Inhibition” value was 2% and the Z score was -0.47. `COc1ccc(C)cc1S(=O)(=O)N1CC(c2ccncc2)C1` was tested, and the “% Inhibition” value was -4% and the Z score was 0.72. With `COc1ccccc1C(=O)Nc1ccc(OCc2coc(-c3ccc(F)cc3)n2)cc1` the “% Inhibition” value was 9% and the Z score was -0.81. With `Cc1noc(C)c1COc1ccc(C(=O)N[C@@H]2CN(C(=O)Nc3ccc(F)cc3)CCC[C@H]2O)cc1` the “% Inhibition” value was 32% and the Z score was -3.58. For `O=C(O)C(c1ccsc1)N1CCCC(NS(=O)(=O)c2cccc(F)c2)C1` (stereo not drawn), the “% Inhibition” value was -6% and the Z score was 0.9. With `Cc1nc([C@H]2CC23CCN(C(=O)Nc2ccc4c(c2)OCCO4)CC3)no1` the “% Inhibition” value was -4% and the Z score was 0.52. For `CCN=C(NCC1CC1)N1CCC(OCC)CC1`, the “% Inhibition” value was 2% and the Z score was -0.22. For `CC(NS(=O)(=O)c1cncc(F)c1)C1CCCO1` (stereo not drawn), the “% Inhibition” value was 0% and the Z score was -0.09. With `CCC1(c2ccc(Cl)cc2)CCN(C(=O)C2=C[S@+]([O-])CCC2)CC1` the “% Inhibition” value was -14% and the Z score was 1.99. With `c1cnc(N2CCC([C@H]3CCN(Cc4nccs4)C3)CC2)nc1` the “% Inhibition” value was -2% and the Z score was 0.45. `CCOc1cc([C@H]2Nc3ccccc3C(=O)N2c2ccc(OC)cc2)ccc1OCc1ccc(F)cc1` was tested, and the “% Inhibition” value was 4% and the Z score was -0.5. With `CCN(CC)S(=O)(=O)N1CCOC(C)(C)C1` the “% Inhibition” value was 6% and the Z score was -0.59. In the case of `Cc1cc(CN(C)Cc2ccc3c4c(cccc24)C(=O)OC3)no1`, the “% Inhibition” value is reported as -4% and the Z score is reported as 0.63. In the case of `CCn1ccc(C(=O)N2CCC(CCC(=O)N3CCOCC3)CC2)cc1=O`, the “% Inhibition” value is reported as -7% and the Z score is reported as 0.61. `CCCN(CC#N)CC(=O)NCc1ccccc1OC` was tested, and the “% Inhibition” value was -8% and the Z score was 1.04. `N#Cc1cc(CN2CCC[C@H]2c2ccncc2)ccc1F` was tested, and the “% Inhibition” value was -17% and the Z score was 2.45. With `COc1ccc(CNC(=O)c2cnn3c(-c4ccncc4)ccnc23)cc1OC` the “% Inhibition” value was 0% and the Z score was 0.06. With `COc1ccccc1CNc1nc(C)no1` the “% Inhibition” value was 5% and the Z score was -0.6. In the case of `O=c1nc2n(nc1-c1ccccc1)C1(CCC1)Nc1ccccc1-2`, the “% Inhibition” value is reported as 54% and the Z score is reported as -13.48. For `CCC(CC)(CC)NCC(=O)Nc1c(Br)cc(C)cc1Br`, the “% Inhibition” value was 0% and the Z score was 0.01. `Cc1ccc(C(N)=O)c(NCC2(N3CCN(C)CC3)CCCC2)n1` was tested, and the “% Inhibition” value was -17% and the Z score was 1.6. For `CCCc1[nH]ccc1C(=O)NCCN1CCOC[C@@H]1C`, the “% Inhibition” value was -4% and the Z score was 0.71. `CCN1CCN(C(=O)c2csc(NC(=O)c3ccc(Cl)cc3Cl)n2)CC1` was tested, and the “% Inhibition” value was -14% and the Z score was 1.29. With `c1ccc(CC2=NCCc3ccccc32)cc1` the “% Inhibition” value was 40% and the Z score was -4.68. With `Cc1ccc(NC(=O)c2cccn3c(Cc4ccccc4)nnc23)cc1C` the “% Inhibition” value was -8% and the Z score was 1.35. For `CNC(=O)C1CCCC1NC(=O)c1ccc2[nH]ccc2n1` (stereo not drawn), the “% Inhibition” value was -11% and the Z score was 2.1. For `CN(C)C(=O)CNC(=NCc1ccccc1)NCc1ccccc1`, the “% Inhibition” value was 1% and the Z score was -0.15. With `N#Cc1nc(-c2cccnc2)oc1NC[C@@H](c1ccco1)N1CCCC1` the “% Inhibition” value was -9% and the Z score was 1.25. `Cc1cccc([C@H]2C[C@@H](c3ccc(F)cc3)Nc3nc(N)nn32)c1` was tested, and the “% Inhibition” value was -6% and the Z score was 1.22. For `C[C@H](NC(=O)CS(=O)(=O)Cc1cscn1)c1ccccc1`, the “% Inhibition” value was 0% and the Z score was 0.02. For `CCc1sc([C@H](C)NC(=O)COCc2nncn2C)cc1C`, the “% Inhibition” value was -7% and the Z score was 1.33. For `O=c1n(CC2(CO)COC2)ccn1-c1ccccc1Cl`, the “% Inhibition” value was -6% and the Z score was 0.64. In the case of `O=C(NC[C@H]1CCN(Cc2ccco2)C1)c1cccc2c1OCC2`, the “% Inhibition” value is reported as -6% and the Z score is reported as 1.29. With `CC(C)CNC(=O)N1CCC[C@H]1c1nnc(C(=O)Nc2ccc(F)cc2)s1` the “% Inhibition” value was -6% and the Z score was 0.64. For `COc1ccc(NC(=O)C2[C@@H]3C=C[C@]4(O3)C(C(=O)NC3CCCC(C)C3C)N(Cc3ccc(Cl)cc3)C(=O)[C@H]24)cc1` (stereo partly drawn), the “% Inhibition” value was -2% and the Z score was 0.2. For `CCS(=O)(=O)N1CCCN(c2ccc(=O)n(-c3ccc(C)cc3)n2)CC1`, the “% Inhibition” value was 4% and the Z score was -0.49. With `CN1CCN(C(=O)N2CCC3(CC2)C[C@H](c2ccccc2)C(=O)N3C)CC1` the “% Inhibition” value was -7% and the Z score was 0.58. In the case of `CC(=O)c1ccc(CNC(=O)COC2CCC(C)CC2)nc1C` (stereo not drawn), the “% Inhibition” value is reported as -4% and the Z score is reported as 0.65. For `COC(=O)c1ccccc1S(=O)(=O)N1CCC(c2cc(-c3cccc(C)c3)n[nH]2)CC1`, the “% Inhibition” value was -6% and the Z score was 1.19. With `CCn1ncn2cc(S(=O)(=O)Nc3ccc(F)cc3)cc2c1=O` the “% Inhibition” value was 4% and the Z score was -0.57. `CC(=O)N(c1nc(CN[C@H](C)CC2CCCCC2)cs1)C1CC1` was tested, and the “% Inhibition” value was 9% and the Z score was -1.05. In the case of `CS(=O)(=O)NCC(=O)N[C@@H]1[C@H]2CCO[C@H]2[C@H]1Cc1ccccc1`, the “% Inhibition” value is reported as -17% and the Z score is reported as 1.75. `O=C(CCC(=O)NCc1ccco1)NCc1ccc2c(c1)OCO2` was tested, and the “% Inhibition” value was -5% and the Z score was 0.74. For `CNC(=O)C(C)(C)CNC(=O)C[C@H](O)c1cc(Cl)cc(Cl)c1`, the “% Inhibition” value was -14% and the Z score was 2.05. With `CC(C)(C)CC(=O)N[C@H]1CO[C@@H](CN2CCC(F)(F)CC2)[C@@H]1O` the “% Inhibition” value was -8% and the Z score was 1.22. For `O=C(CC1=CCCCC1)Nc1cnns1`, the “% Inhibition” value was -2% and the Z score was 0.24. `Cc1cc([C@@H]2CCCN2c2ccc3nnc(C(F)(F)F)n3n2)no1` was tested, and the “% Inhibition” value was -1% and the Z score was 0.12. With `CC1CCN(CC(=O)N2c3ccccc3NC(=O)C[C@@H]2C)CC1` the “% Inhibition” value was -6% and the Z score was 0.52. With `O=C(C[C@H]1CCCO1)N1CCC(S(=O)(=O)N2CCCCC2)CC1` the “% Inhibition” value was -17% and the Z score was 1.81. With `Cc1cccc(CN(C)c2nnc([C@@H]3CCCCO3)n2C)c1` the “% Inhibition” value was -14% and the Z score was 1.96. With `CCN1CCN(C(=O)NCc2ccco2)CC1` the “% Inhibition” value was -8% and the Z score was 1.49. For `CC(C)(C)CCC(=O)NCc1cnc2cnccn12`, the “% Inhibition” value was 3% and the Z score was -0.66. With `O=C(c1ccc(C(F)(F)F)cc1)N1CC[C@@H]2NCCC[C@@H]2C1` the “% Inhibition” value was 23% and the Z score was -3.16. With `CC(N[C@@H]1CCCN(S(=O)(=O)N(C)C)C1)c1ccc(C(F)F)nc1` (stereo partly drawn) the “% Inhibition” value was -7% and the Z score was 1.33. In the case of `CC(C)[C@H](CCO)Nc1ncc(Br)cn1`, the “% Inhibition” value is reported as -6% and the Z score is reported as 0.51. `CCCc1cnc(NC(=O)[C@@H]2CCCCN2)s1` was tested, and the “% Inhibition” value was -3% and the Z score was 0.27. For `CCCCCc1ccc(C(=O)Nc2ccc3[nH]cc(CCN(CCC)CC4CC4)c3c2)cc1`, the “% Inhibition” value was 21% and the Z score was -2.09. With `COC[C@H](NC(=O)c1c(F)c(F)cc(F)c1F)C1CC1` the “% Inhibition” value was 2% and the Z score was -0.36. In the case of `CCNC(=O)[C@@H]1C[C@@H](N)CN1C(=O)c1cccc(-c2ccc(C)cc2)c1`, the “% Inhibition” value is reported as 2% and the Z score is reported as -0.43. With `c1csc(-c2ocnc2-c2nc([C@H]3CCOC3)no2)c1` the “% Inhibition” value was -13% and the Z score was 1.36. In the case of `O=C(COc1ccc(Cl)cc1)Nc1ccccc1-c1nc2ccccc2[nH]c1=O`, the “% Inhibition” value is reported as -5% and the Z score is reported as 0.82. With `Cc1noc2c1N=C(c1ccc(F)cc1)C[C@@H](c1ccccc1)C2` the “% Inhibition” value was -6% and the Z score was 0.72. With `Cc1nc2ccc(C(=O)N3CCCN(C(C)C)CC3)cc2n1C` the “% Inhibition” value was -3% and the Z score was 0.37. With `CN(CCN(C)c1ccc(C#N)nc1)C(=O)OC(C)(C)C` the “% Inhibition” value was 6% and the Z score was -0.99. In the case of `OC12CCCCC1CN(Cc1cccc(C(F)(F)F)c1)CC2` (stereo not drawn), the “% Inhibition” value is reported as -12% and the Z score is reported as 1.11. With `COCCN1C[C@H](CNC(=O)NCc2ccccc2)OCC1=O` the “% Inhibition” value was -14% and the Z score was 1.82. `NC(=O)c1cc(Br)ccc1F` was tested, and the “% Inhibition” value was 1% and the Z score was -0.12.
